# Test results from the supplement of paper PMC8728848.
# Some of the results follow.
# B1: EULS2 M4 (Oryza sativa) (protein)
# chain: MVYCRANPNYAMTARNGAVVLAPANPKDEYQHWIKDMRWSTSIKDEEGYPAFALVNKATGQAIKHSLGQSHPVRLVPYNPEVMDESVLWTESRDVGNGFRCIRMVNNIYLNFDAFHGDKYHGGVRDGTDIVLWKWCEGDSLRWKIQPYYILEQKLISEEDLNSAVDHHHHHH
# Experiments:
# Assay in all cases: glycan array binding signal (z-score within array); higher = stronger binding
# Conditions in all cases: glycan notation: IUPAC condensed, linker removed
# Gal6S(b1-4)Glc6S = molecular target: Gal6S(b1-4)Glc6S
# Summary of the method: (§1)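 The Consortium for Functional Glycomics database supplied 3228 glycan arrays, of which those lacking an available protein sequence were dropped. The binding signal, a within-array Z-score, was averaged across arrays of the same protein sequence and across linkers. Negative scores can be read as non-binding.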
# Gal6S(b1-4)GlcNAc = molecular target: Gal6S(b1-4)GlcNAc
# Summary of the method: as §1
# Gal6S(b1-4)GlcNAc6S = molecular target: Gal6S(b1-4)GlcNAc6S
# Summary of the method: as §1
# GalNAc(a1-3)Gal = molecular target: GalNAc(a1-3)Gal
# Summary of the method: as §1
# GalNAc(a1-3)GalNAc = molecular target: GalNAc(a1-3)GalNAc
# Summary of the method: as §1
# [1] = molecular target: GalNAc(a1-3)GalNAc(b1-3)Gal(a1-4)Gal(b1-4)Glc
# Summary of the method: as §1
# [2] = molecular target: GalNAc(a1-3)GalNAc(b1-3)Gal(a1-4)Gal(b1-4)GlcNAc
# Summary of the method: as §1
# GalNAc(b1-3)Gal = molecular target: GalNAc(b1-3)Gal
# Summary of the method: as §1
# [3] = molecular target: GalNAc(b1-3)Gal(a1-4)Gal(b1-4)GlcNAc
# Summary of the method: as §1
# [4] = molecular target: GalNAc(b1-3)Gal(a1-4)Gal(b1-4)GlcNAc(b1-3)Gal(b1-4)Glc
# Summary of the method: as §1
# [5] = molecular target: GalNAc(b1-3)Gal(a1-6)Gal(b1-4)Glc
# Summary of the method: as §1
# GalNAc(b1-3)GalNAc = molecular target: GalNAc(b1-3)GalNAc
# Summary of the method: as §1
# GalNAc(b1-3)GlcNAc = molecular target: GalNAc(b1-3)GlcNAc
# Summary of the method: as §1
# GalNAc(b1-4)Gal(b1-4)Glc = molecular target: GalNAc(b1-4)Gal(b1-4)Glc
# Summary of the method: as §1
# GalNAc(b1-4)GlcNAc = molecular target: GalNAc(b1-4)GlcNAc
# Summary of the method: as §1
# [6] = molecular target: GalNAc(b1-4)GlcNAc(b1-2)Man
# Summary of the method: as §1
# [7] = molecular target: GalNAc(b1-4)GlcNAc(b1-2)Man(a1-3)[GalNAc(b1-4)GlcNAc(b1-2)Man(a1-6)]Man(b1-4)GlcNAc(b1-4)GlcNAc
# Summary of the method: as §1
# [8] = molecular target: GalNAc(b1-4)GlcNAc(b1-3)GalNAc(b1-4)GlcNAc
# Summary of the method: as §1
# GalNAc(b1-4)GlcNAc6S = molecular target: GalNAc(b1-4)GlcNAc6S
# Summary of the method: as §1
# GalNAc(b1-6)GalNAc = molecular target: GalNAc(b1-6)GalNAc
# Summary of the method: as §1
# GalNAc3S(b1-4)GlcNAc = molecular target: GalNAc3S(b1-4)GlcNAc
# Summary of the method: as §1
# GalNAc3S(b1-4)GlcNAc3S = molecular target: GalNAc3S(b1-4)GlcNAc3S
# Summary of the method: as §1
# [9] = molecular target: GalNAc3S(b1-4)[Fuc(a1-3)]GlcNAc
# Summary of the method: as §1
# GalNAc4S6S(b1-4)GlcNAc = molecular target: GalNAc4S6S(b1-4)GlcNAc
# Summary of the method: as §1
# GalNAc6S(b1-4)GlcNAc = molecular target: GalNAc6S(b1-4)GlcNAc
# Summary of the method: as §1
# Glc(a1-4)Glc = molecular target: Glc(a1-4)Glc
# Summary of the method: as §1
# [10] = molecular target: Glc(a1-4)Glc(a1-4)Glc(a1-4)Glc
# Summary of the method: as §1
# Glc(a1-6)Glc(a1-6)Glc = molecular target: Glc(a1-6)Glc(a1-6)Glc
# Summary of the method: as §1
# [11] = molecular target: Glc(a1-6)Glc(a1-6)Glc(a1-6)Glc
# Summary of the method: as §1
# Glc(b1-4)Glc = molecular target: Glc(b1-4)Glc
# Summary of the method: as §1
# Glc(b1-6)Glc = molecular target: Glc(b1-6)Glc
# Summary of the method: as §1
# GlcA(b1-3)Gal = molecular target: GlcA(b1-3)Gal
# Summary of the method: as §1
# GlcA(b1-3)GlcNAc = molecular target: GlcA(b1-3)GlcNAc
# Summary of the method: as §1
# GlcA(b1-6)Gal = molecular target: GlcA(b1-6)Gal
# Summary of the method: as §1
# [12] = molecular target: GlcA3S(b1-3)Gal(b1-4)GlcNAc(b1-2)Man
# Summary of the method: as §1
# [13] = molecular target: GlcA3S(b1-3)Gal(b1-4)GlcNAc(b1-3)Gal(b1-4)Glc
# Summary of the method: as §1
# [14] = molecular target: GlcNAc(a1-3)Gal(b1-4)GlcNAc
# Summary of the method: as §1
# [15] = molecular target: GlcNAc(a1-4)Gal(b1-3)GlcNAc
# Summary of the method: as §1
# [16] = molecular target: GlcNAc(a1-4)Gal(b1-4)GalNAc
# Summary of the method: as §1
# [17] = molecular target: GlcNAc(a1-4)Gal(b1-4)GlcNAc
# Summary of the method: as §1
# [18] = molecular target: GlcNAc(a1-4)Gal(b1-4)GlcNAc(b1-3)Gal(b1-4)Glc
# Summary of the method: as §1
# [19] = molecular target: GlcNAc(a1-4)Gal(b1-4)GlcNAc(b1-3)Gal(b1-4)GlcNAc
# Summary of the method: as §1
# [20] = molecular target: GlcNAc(a1-4)Gal(b1-4)GlcNAc(b1-3)Gal(b1-4)GlcNAc(b1-3)Gal(b1-4)GlcNAc
# Summary of the method: as §1
# [21] = molecular target: GlcNAc(a1-4)Gal(b1-4)GlcNAc(b1-3)Gal(b1-4)[Fuc(a1-3)]GlcNAc(b1-3)Gal(b1-4)[Fuc(a1-3)]GlcNAc
# Summary of the method: as §1
# [22] = molecular target: GlcNAc(a1-6)Gal(b1-4)GlcNAc
# Summary of the method: as §1
binder,measurement,setting,value
B1,glycan array binding signal (z-score),Gal6S(b1-4)Glc6S,-0.068
same,glycan array binding signal (z-score),Gal6S(b1-4)GlcNAc,-0.146
same,glycan array binding signal (z-score),Gal6S(b1-4)GlcNAc6S,-0.349
same,glycan array binding signal (z-score),GalNAc(a1-3)Gal,0.158
same,glycan array binding signal (z-score),GalNAc(a1-3)GalNAc,-0.218
same,glycan array binding signal (z-score),[1],-0.3
same,glycan array binding signal (z-score),[2],-0.51
same,glycan array binding signal (z-score),GalNAc(b1-3)Gal,-0.102
same,glycan array binding signal (z-score),[3],1.04
same,glycan array binding signal (z-score),[4],-0.527
same,glycan array binding signal (z-score),[5],0.215
same,glycan array binding signal (z-score),GalNAc(b1-3)GalNAc,-0.465
same,glycan array binding signal (z-score),GalNAc(b1-3)GlcNAc,-0.464
same,glycan array binding signal (z-score),GalNAc(b1-4)Gal(b1-4)Glc,-0.262
same,glycan array binding signal (z-score),GalNAc(b1-4)GlcNAc,-0.133
same,glycan array binding signal (z-score),[6],-0.213
same,glycan array binding signal (z-score),[7],-0.11
same,glycan array binding signal (z-score),[8],-0.494
same,glycan array binding signal (z-score),GalNAc(b1-4)GlcNAc6S,-0.326
same,glycan array binding signal (z-score),GalNAc(b1-6)GalNAc,-0.396
same,glycan array binding signal (z-score),GalNAc3S(b1-4)GlcNAc,-0.46
same,glycan array binding signal (z-score),GalNAc3S(b1-4)GlcNAc3S,-0.634
same,glycan array binding signal (z-score),[9],0.46
same,glycan array binding signal (z-score),GalNAc4S6S(b1-4)GlcNAc,-0.394
same,glycan array binding signal (z-score),GalNAc6S(b1-4)GlcNAc,-0.089
same,glycan array binding signal (z-score),Glc(a1-4)Glc,-0.419
same,glycan array binding signal (z-score),[10],0.089
same,glycan array binding signal (z-score),Glc(a1-6)Glc(a1-6)Glc,0.287
same,glycan array binding signal (z-score),[11],-0.515
same,glycan array binding signal (z-score),Glc(b1-4)Glc,-0.598
same,glycan array binding signal (z-score),Glc(b1-6)Glc,-0.026
same,glycan array binding signal (z-score),GlcA(b1-3)Gal,-0.38
same,glycan array binding signal (z-score),GlcA(b1-3)GlcNAc,2.29
same,glycan array binding signal (z-score),GlcA(b1-6)Gal,-0.632
same,glycan array binding signal (z-score),[12],-0.306
same,glycan array binding signal (z-score),[13],-0.489
same,glycan array binding signal (z-score),[14],-0.316
same,glycan array binding signal (z-score),[15],-0.229
same,glycan array binding signal (z-score),[16],-0.159
same,glycan array binding signal (z-score),[17],-0.631
same,glycan array binding signal (z-score),[18],1.59
same,glycan array binding signal (z-score),[19],-0.554
same,glycan array binding signal (z-score),[20],-0.045
same,glycan array binding signal (z-score),[21],0.121
same,glycan array binding signal (z-score),[22],0.149
